Source: the supplement of paper PMC8728848
The other results are listed elsewhere or left out.

Columns and labels:
Test in all cases: glycan array binding signal (z-score within array); higher = stronger binding
Details in all cases: glycan notation: IUPAC condensed, linker removed
[1] = molecular target: Gal(b1-4)GlcNAc(b1-2)Man(a1-3)[Gal(b1-4)GlcNAc(b1-2)Man(a1-6)]Man(b1-4)GlcNAc(b1-4)GlcNAc
Method in brief: (§1)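 Glycan array data came from 3228 arrays in the Consortium for Functional Glycomics database, and only arrays with an available protein sequence were kept. Glycan names were put into IUPAC-condensed notation, and columns mapping to the same glycan were averaged. The binding signal is a within-array Z-score, averaged across arrays of one protein sequence run at different concentrations or buffers and across linkers. A negative Z-score can be read as non-binding.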

[2] = molecular target: Gal(b1-4)GlcNAc(b1-2)Man(a1-3)[Gal(b1-4)GlcNAc(b1-2)Man(a1-6)]Man(b1-4)GlcNAc(b1-4)[Fuc(a1-6)]GlcNAc
Method in brief: as §1

[3] = molecular target: Gal(b1-4)GlcNAc(b1-2)Man(a1-3)[Gal(b1-4)GlcNAc(b1-2)Man(a1-6)][Gal(b1-4)GlcNAc(b1-4)]Man(b1-4)GlcNAc(b1-4)[Fuc(a1-6)]GlcNAc
Method in brief: as §1

[4] = molecular target: Gal(b1-4)GlcNAc(b1-2)Man(a1-3)[Gal(b1-4)GlcNAc(b1-2)Man(a1-6)][GlcNAc(b1-4)]Man(b1-4)GlcNAc(b1-4)[Fuc(a1-6)]GlcNAc
Method in brief: as §1

[5] = molecular target: Gal(b1-4)GlcNAc(b1-2)Man(a1-3)[GlcNAc(b1-2)Man(a1-6)]Man(b1-4)GlcNAc(b1-4)GlcNAc
Method in brief: as §1

[6] = molecular target: Gal(b1-4)GlcNAc(b1-2)Man(a1-3)[GlcNAc(b1-4)][Gal(b1-4)GlcNAc(b1-2)Man(a1-6)]Man(b1-4)GlcNAc(b1-4)GlcNAc
Method in brief: as §1

[7] = molecular target: Gal(b1-4)GlcNAc(b1-2)Man(a1-3)[Man(a1-6)]Man(b1-4)GlcNAc(b1-4)GlcNAc
Method in brief: as §1

[8] = molecular target: Gal(b1-4)GlcNAc(b1-2)Man(a1-6)Man(b1-4)GlcNAc(b1-4)GlcNAc
Method in brief: as §1

[9] = molecular target: Gal(b1-4)GlcNAc(b1-2)Man(a1-6)[GlcNAc(b1-2)Man(a1-3)]Man(b1-4)GlcNAc(b1-4)GlcNAc
Method in brief: as §1

[10] = molecular target: Gal(b1-4)GlcNAc(b1-2)Man(a1-6)[Man(a1-3)]Man(b1-4)GlcNAc(b1-4)GlcNAc
Method in brief: as §1

[11] = molecular target: Gal(b1-4)GlcNAc(b1-2)[Gal(b1-4)GlcNAc(b1-4)]Man(a1-3)[Gal(b1-4)GlcNAc(b1-2)Man(a1-6)]Man(b1-4)GlcNAc(b1-4)GlcNAc
Method in brief: as §1

[12] = molecular target: Gal(b1-4)GlcNAc(b1-2)[Gal(b1-4)GlcNAc(b1-4)]Man(a1-3)[Gal(b1-4)GlcNAc(b1-2)[Gal(b1-4)GlcNAc(b1-6)]Man(a1-6)]Man(b1-4)GlcNAc(b1-4)GlcNAc
Method in brief: as §1

[13] = molecular target: Gal(b1-4)GlcNAc(b1-2)[Gal(b1-4)GlcNAc(b1-4)]Man(a1-3)[GlcNAc(b1-4)][Gal(b1-4)GlcNAc(b1-2)Man(a1-6)]Man(b1-4)GlcNAc(b1-4)GlcNAc
Method in brief: as §1

[14] = molecular target: Gal(b1-4)GlcNAc(b1-2)[Gal(b1-4)GlcNAc(b1-4)]Man(a1-3)[GlcNAc(b1-4)][Gal(b1-4)GlcNAc(b1-2)[Gal(b1-4)GlcNAc(b1-6)]Man(a1-6)]Man(b1-4)GlcNAc(b1-4)GlcNAc
Method in brief: as §1

[15] = molecular target: Gal(b1-4)GlcNAc(b1-2)[Gal(b1-4)GlcNAc(b1-6)]Man(a1-6)[Gal(b1-4)GlcNAc(b1-2)Man(a1-3)]Man(b1-4)GlcNAc(b1-4)GlcNAc
Method in brief: as §1

[16] = molecular target: Gal(b1-4)GlcNAc(b1-2)[Gal(b1-4)GlcNAc(b1-6)]Man(a1-6)[Gal(b1-4)GlcNAc(b1-2)Man(a1-3)]Man(b1-4)GlcNAc(b1-4)[Fuc(a1-6)]GlcNAc
Method in brief: as §1

[17] = molecular target: Gal(b1-4)GlcNAc(b1-2)[Gal(b1-4)GlcNAc(b1-6)]Man(a1-6)[GlcNAc(b1-4)][Gal(b1-4)GlcNAc(b1-2)Man(a1-3)]Man(b1-4)GlcNAc(b1-4)GlcNAc
Method in brief: as §1

[18] = molecular target: Gal(b1-4)GlcNAc(b1-2)[Gal(b1-4)GlcNAc(b1-6)]Man(a1-6)[GlcNAc(b1-4)][Gal(b1-4)GlcNAc(b1-2)[Gal(b1-4)GlcNAc(b1-4)]Man(a1-3)]Man(b1-4)GlcNAc(b1-4)[Fuc(a1-6)]GlcNAc
Method in brief: as §1

[19] = molecular target: Gal(b1-4)GlcNAc(b1-3)Gal(b1-3)GalNAc
Method in brief: as §1

B1: Siglec-9 (Homo sapiens), Q9Y336 (protein)
chain: MLLLLLPLLWGRERAEGQTSKLLTMQSSVTVQEGLCVHVPCSFSYPSHGWIYPGPVVHGYWFREGANTDQDAPVATNNPARAVWEETRDRFHLLGDPHTKNCTLSIRDARRSDAGRYFFRMEKGSIKWNYKHHRLSVNVTALTHRPNILIPGTLESGCPQNLTCSVPWACEQGTPPMISWIGTSVSPLDPSTTRSSVLTLIPQPQDHGTSLTCQVTFPGASVTTNKTVHLNVSYPPQNLTMTVFQGDGTVSTVLGNGSSLSLPEGQSLRLVCAVDAVDSNPPARLSLSWRGLTLCPSQPSNPGVLELPWVHLRDAAEFTCRAQNPLGSQQVYLNVSLQSKATSGVTQGVVGGAGATALVFLSFCVIFVVVRSCRKKSARPAAGVGDTGIEDANAVRGSASQGPLTEPWAEDSPPDQPPPASARSSVGEGELQYASLSFQMVKPWDSRGQEATDTEYSEIKIHR
[1]
  glycan array binding signal (z-score): -0.354
[2]
  glycan array binding signal (z-score): -0.24
[3]
  glycan array binding signal (z-score): -0.418
[4]
  glycan array binding signal (z-score): -0.471
[5]
  glycan array binding signal (z-score): -0.371
[6]
  glycan array binding signal (z-score): -0.162
[7]
  glycan array binding signal (z-score): -0.235
[8]
  glycan array binding signal (z-score): -0.333
[9]
  glycan array binding signal (z-score): -0.011
[10]
  glycan array binding signal (z-score): -0.065
[11]
  glycan array binding signal (z-score): 0.315
[12]
  glycan array binding signal (z-score): -0.283
[13]
  glycan array binding signal (z-score): -0.284
[14]
  glycan array binding signal (z-score): -0.224
[15]
  glycan array binding signal (z-score): -0.189
[16]
  glycan array binding signal (z-score): 0.273
[17]
  glycan array binding signal (z-score): -0.211
[18]
  glycan array binding signal (z-score): -0.304
[19]
  glycan array binding signal (z-score): -0.1
